Data: PubChem BioAssay AID1345083 (National Center for Advancing Translational Sciences (NCATS), 2018)
Hit rate of the full screen: of about 94,000 compounds, about 6,200 (6.6%) were called active. Inconclusive results, whose numbers are uncertain, are shown with a selection of clear calls. Calls come from the whole dose curve; as a rule, active = well fitted inhibition curve with a large enough effect; inconclusive = small, poorly fitted or top-dose-only effect; inactive = flat fitted curve, though single readings scatter. A potency beside an inconclusive call is a rough fit, not a confirmed value.

Assay: Cytotoxic Profiling in HEK 293 Cell Line of Diverse Libraries Using Quantitative High-Throughput Screening; note: nearly all actives have a fitted effect of over 60% in size
Details: HEK 293 viability, ATP luminescence (CellTiter-Glo), 48-72 h; series mostly up to 115 µM
Method in brief: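 Luminescence from cellular ATP, measured with CellTiter-Glo, indicates HEK 293 viability. Cells plated at 250 cells/well are treated with compound for 48 or 72 hr at 37 degree Celsius before reagent addition.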
Potency is the fitted concentration of half-maximal effect; tags give direction and shape of the fitted curve.

Row | SMILES | Potency
1 | CCOc1ccc(C(=O)N2CCCN(C(=O)C3CC3)c3ccccc32)cc1 | inconclusive: 100 µM [inhibitor, single point]
2 | COc1ccc(-c2cc(N3CCCN(C(=O)C(C)c4ccccc4)CC3)n[nH]2)cc1 (centres undefined) | active: 79.4 µM
3 | COc1ccc(CNC(=O)N2CCC(Cc3ncc(C)n3C3CC3)C2)cc1 (centres undefined) | inactive
4 | COCCOCC(=O)N1CC(Oc2ccccc2-c2nc(C3CC3)no2)C1 | inactive
5 | O=C1c2c(nc(CNCc3cnccn3)n2Cc2ccccc2)NCCN1Cc1cccc(Cl)c1 | inconclusive: 56.2 µM [inhibitor, partial curve, poor fit]
6 | O=C(NCc1nnc2cc(-c3nc(C4CC4)no3)ccn12)c1ccc2[nH]ccc2c1 | inconclusive: 3.16 µM [inhibitor, full curve]
7 | Cc1ccc(C(=O)N2CCC(Cc3ccc(CN4CCCCC4)cc3)CC2)cn1 | inconclusive: 35.5 µM [inhibitor, full curve]
8 | CC(=O)N1CCCC1c1nc(C2CN(Cc3ccc(F)c(Cl)c3)C2)no1 (centres undefined) | inconclusive: 112 µM [inhibitor, partial curve, poor fit]
9 | COc1cc(F)ccc1-c1cc(C(=O)NCc2c(C)cc(C)[nH]c2=O)c2c(c1)N(C(C)C)CCO2 | active: 44.7 µM
10 | COCc1nc(C2CCCN(C(=O)c3ccc(OC)nc3OC)C2)no1 (centres undefined) | inactive
11 | NCCC(=O)N1CCC2(CC1)CN(C(=O)c1ccc(Cl)cc1)CCO2 | inactive
12 | Cc1cn2nc(C(=O)Nc3ccc(F)c(F)c3)cc2c(N(C)Cc2ccccc2)n1 | inconclusive: 20 µM [inhibitor, full curve, poor fit]
13 | Cc1ncc(CN2CCCC2C(=O)Nc2ccc(-c3cccc(F)c3)cc2)[nH]1 (centres undefined) | inconclusive: 25.1 µM [inhibitor, full curve, poor fit]
14 | Cc1ccc([S+](=O)([O-])NC2CCCN(Cc3cccc(-c4ccc(C)c(Cl)c4)c3)C2)cc1 (centres undefined) | active: 28.2 µM
15 | COc1cccc(-c2cccc(CN3CCCC3C(=O)NC3CC3)c2)c1 (centres undefined) | active: 44.7 µM
16 | Cc1ccc(C2Cn3nnc(-c4noc(-c5cc(F)ccc5Cl)n4)c3CO2)cc1 (centres undefined) | inactive
17 | CN(C)CCNC(=O)c1ccc2c(c1)C1(CCCN(CC3CC3)C1)CN2C (centres undefined) | inconclusive: 100 µM [inhibitor, partial curve, poor fit]
18 | COc1cccc(N2C(=O)NC(=NC3CCCCC3)C23CCN(Cc2ccc(N(C)C)cc2)C3)c1 (centres undefined) | inactive
19 | COc1cncc(NC(=O)C2=NO[C@@H]3CN(Cc4sccc4C)C[C@H]23)c1 | inconclusive: 100 µM [inhibitor, partial curve, poor fit]
20 | O=C(CC1CCCC1)N1CCN2CCS(=O)(=O)N(C3CC3)C(=O)C2C1 (centres undefined) | inconclusive: 89.1 µM [inhibitor, single point]
21 | COc1ncccc1-c1cc(C(=O)NCC2CCOCC2)c2c(c1)ncn2C | inactive
22 | CC(C)CN1C(=O)CCc2cc(NC(=O)C3CCC3)ccc21 | inconclusive: 89.1 µM [inhibitor, single point]

Row | SMILES | Potency
23 | CCN(CC)C(=O)C[C@@H]1CCNC[C@@H]1Cc1cc(-c2ccc(C(C)(C)C)cc2)on1 | active: 39.8 µM
24 | Cc1nn(-c2ccccc2)c2c1C(C(C)C)N(C1CCN(C(=O)c3ccccc3Cl)C1)C2=O (centres undefined) | inconclusive: 50.1 µM [inhibitor, partial curve, poor fit]
25 | Cc1nn(C)cc1CN1C[C@@H](COCC2CC2)[C@H](c2ccccn2)C1 | inactive
26 | O=C1NC(=NC2CCCCC2)C2(CCN(CC3CCCCC3)C2)N1c1cccnc1 (centres undefined) | inconclusive: 56.2 µM [inhibitor, partial curve, poor fit]
27 | C[C@@H](N)C(=O)N1CCOc2c(O)cc(-c3ncc(C(F)(F)F)cc3Cl)cc2C1 | inactive
28 | COCCOc1ccc(C(=O)N[C@@H]2CN(C(=O)Nc3ccc(OC(F)(F)F)cc3)CCC[C@H]2O)cc1 | inconclusive: 44.7 µM [inhibitor, partial curve, poor fit]
29 | COCCNC(=O)[C@@H]1CCC[C@@H](NCc2nccn2C)CN(C)C(=O)C1 | inconclusive: 126 µM [inhibitor, single point]
30 | CN(Cc1ccccn1)C1CCOc2ccccc21 (centres undefined) | inconclusive: 126 µM [inhibitor, single point]
31 | COCCC(=O)N1CCC(Oc2ccccc2-c2nc(C3CC3)no2)C1 (centres undefined) | inactive
32 | COc1cccc(-c2ccccc2NC(=O)C2CCN(Cc3ccccc3F)CC2)c1 | inconclusive: 56.2 µM [inhibitor, partial curve, poor fit]
33 | Cc1cccc(OCC2(CNCC3CC3)C[C@@H](O)[C@@H](O)C2)n1 (some centres undefined) | inactive
34 | CN1CCC(C(=O)N2Cc3ccccc3CC3(CCCCN3Cc3ccncc3)C2)CC1 (centres undefined) | inactive
35 | Cc1ccc2c(C(=O)NCc3cc(F)cc(F)c3)cc(NC(=O)C(C)C)cc2n1 | inconclusive: 89.1 µM [inhibitor, single point]
36 | COCC1CN(C(C)=O)CC12CCN(Cc1c[nH]c3ccc(OC)cc13)CC2 (centres undefined) | inactive
37 | COc1ccc(CN2CCc3oc(C)c(C(=O)NC4CCN(C)CC4)c3C2)cc1 | inconclusive: 89.1 µM [inhibitor, single point]
38 | COc1ccc(N2CC(c3noc(-c4ccc(C)c(C)c4)n3)CC2=O)cc1OC (centres undefined) | inconclusive: 89.1 µM [inhibitor, single point]
39 | Cc1ccccc1[C@H]1C[C@@H](O)[C@@H](O)[C@@H]1NCC(C)(C)O | inactive
40 | CCC[C@@H]1CN(C(=O)c2cccc(N3CCS(=O)(=O)CC3)c2)C[C@H]1N(C)C | inactive
41 | CC(C)CCN(C1CCOCC1)C1CCN(Cc2ccc[nH]2)CC1 | inconclusive: 22.4 µM [inhibitor, full curve, poor fit]
42 | Cn1ncc2c(C(=O)NCCc3ccc(Cl)cc3)cc(-c3ccc(Cl)cc3)nc21 | inactive
43 | O=[S+]1([O-])NCC2(CCN(Cc3ccc(OC(F)(F)F)cc3)C2)Nc2ccccc21 (centres undefined) | active: 79.4 µM
44 | O=C(NCCc1ccccc1)c1ccc2nc(-c3cccnc3)oc2c1 | inactive
